Test [1] concerns the target T1, IL-2Rβ-Fc (Acro Biosystems, catalog #ILB-H5253) (UniProt P14784 27-239, limits assumed).
T1 construct: Bought reagent; Captured on an anti-Fc chip as SPR ligand; also called CD122; not shown: Fc part of the bought fusion
T1 sequence (looked up): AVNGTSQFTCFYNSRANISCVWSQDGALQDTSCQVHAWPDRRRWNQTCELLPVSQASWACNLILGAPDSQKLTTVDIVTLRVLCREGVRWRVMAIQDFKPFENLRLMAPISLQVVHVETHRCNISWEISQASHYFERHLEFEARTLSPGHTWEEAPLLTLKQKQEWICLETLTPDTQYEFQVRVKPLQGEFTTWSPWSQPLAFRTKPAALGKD
Kind of test: SPR (Biacore T200), kinetic; receptor-Fc captured on anti-Fc CM5 chip, IL-2 variant as analyte. On the procedure:
(§1) Anti-Fc polyclonal antibodies were immobilized onto a CM5 chip (GE Life Sciences) using amine coupling chemistry (from Amine Coupling Kit, GE Life Sciences). The immobilization steps were carried out at a flow rate of 25 μL/minute in 1×HBS-EP+ buffer (GE Life Sciences; 10× Stock diluted before use). The sensor surfaces were activated for 7 minutes with a mixture of NHS (0.05 M) and EDC (0.2 M). The anti-Fc antibodies were injected over all four flow cells at a concentration of 25 μg/mL in 10 mM sodium acetate, pH 4.5, for seven minutes. Ethanolamine (1 M, pH 8.5) was injected for seven minutes to block any remaining activated groups.
(§2) Kinetic binding experiments were performed at 25° C. using 1×HBS-EP+ with 0.05% BSA buffer. IL-2Rα-Fc or IL-2Rβ-Fc (Acro Biosystems, catalog #ILA-H5251, ILB-H5253) was injected over the anti-Fc surface at concentrations of 3-10 μg/mL for 12 seconds at a flow rate of 10 μL/minute on flow cells 2, 3 and 4, followed by a buffer wash for 30 seconds at the same flow rate. Kinetic characterization of conjugated or unconjugated aldesleukin or variants was carried out in a range of concentrations from 1 nM-10 μM and one injection of no antigen. After capturing ligand (IL-2Rα-Fc or IL-2Rβ-Fc) on the anti-Fc surface, the analyte (IL-2 variant) was bound for 60 seconds, followed by a 180 second dissociation phase at a flow rate of 50 μL/min. Between each ligand capture and analyte binding cycle, regeneration was carried out using two injections of 10 mM Glycine pH 1.5 for 30 seconds at 30 μL/minute, followed by a 30 second buffer wash step.
A general note: Surface plasmon resonance follows binding to a sensor surface in real time, without labels.

The target in test [2] is T2, IL-2Rα-Fc (Acro Biosystems, catalog #ILA-H5251) (UniProt P01589 22-217, limits assumed).
T2 construct: Bought reagent; Captured on an anti-Fc chip as SPR ligand; also called CD25; not shown: Fc part of the bought fusion
T2 sequence (looked up): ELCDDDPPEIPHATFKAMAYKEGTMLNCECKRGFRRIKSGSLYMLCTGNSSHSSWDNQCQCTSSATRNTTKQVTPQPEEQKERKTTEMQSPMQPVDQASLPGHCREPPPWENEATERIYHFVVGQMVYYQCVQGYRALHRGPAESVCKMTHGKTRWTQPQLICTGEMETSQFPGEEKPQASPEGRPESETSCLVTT
The test is described as above. On the procedure: as §1, §2

B1: Aldesleukin-6His (ligand)
chain: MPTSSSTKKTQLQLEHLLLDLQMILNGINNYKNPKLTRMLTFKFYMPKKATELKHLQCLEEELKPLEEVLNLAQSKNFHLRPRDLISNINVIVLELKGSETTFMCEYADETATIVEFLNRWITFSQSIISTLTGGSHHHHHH
notes: also called Ald-6HIS; Ald-6His
In general, Kd refers to a measure of binding affinity in units of concentration. Read a low Kd as a tighter complex. For the molecule B1, the values for the Kd in test [1] and in test [2] were 300 nM and 8 nM, respectively.

B2: Ald-6HIS_F77pAMF (SP9942), unconjugated (ligand)
chain: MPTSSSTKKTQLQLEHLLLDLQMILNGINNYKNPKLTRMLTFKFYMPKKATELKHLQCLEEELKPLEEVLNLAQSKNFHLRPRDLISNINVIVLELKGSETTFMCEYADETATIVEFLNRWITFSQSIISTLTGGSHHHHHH
modifications: X78 = pAMF (F77 in SEQ ID NO: 2/3 numbering)
notes: also called Aldesleukin-6His F77TAG p-azidomethyl-L-phenylalanine
In test [2], B2 showed a dissociation constant (Kd) of 10 nM.

B3: Ald-6HIS_F41pAMF (SP9960), unconjugated (ligand)
chain: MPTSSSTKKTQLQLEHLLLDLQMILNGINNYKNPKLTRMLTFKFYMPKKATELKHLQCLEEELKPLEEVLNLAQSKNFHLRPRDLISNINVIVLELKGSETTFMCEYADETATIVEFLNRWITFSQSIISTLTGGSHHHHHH
modifications: X42 = pAMF (F41 in SEQ ID NO: 2/3 numbering)
notes: also called Aldesleukin-6His F41TAG p-azidomethyl-L-phenylalanine
The molecule B3 displayed a Kd in test [1] of 200 nM.

The record behind these values is patent publication US20260256927A1 (Merck Sharp & Dohme, published 2026).
